{"source": "the supplement of paper PMC11417369", "note": "± gives the standard deviation of the averaged measurements. This is one part of the list.", "data": [{"system": "PfAP2-G AP2 domain (GST-tagged)", "experiment": "gcPBM binding intensity (ln(normalized median fluorescence intensity)); higher = stronger DNA binding", "procedure,_shortened": "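Alexa488 anti-GST antibody, scanned at 488 nm, detected GST-tagged P. falciparum DNA-binding domains that had been expressed in E. coli and incubated for 1 h on an Agilent 4 × 180k array. The array carried primer-extended double-stranded 36-bp intergenic genomic probes and negative controls. Binding intensity is the highest Masliner-normalised natural-log median intensity across replicate spots of either orientation of each probe.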", "values": [{"sequence": "AATGTATATATGTAATGTACATATATAATGTATATA [XGTACX_site6510]", "gcPBM binding intensity (ln)": "10.8 ± 0.4"}, {"sequence": "TGTAGTTTGTCCCATGCATGTTCCATTAAAATATAT [TGCATGCA_site854]", "gcPBM binding intensity (ln)": "10.7 ± 0.4"}, {"sequence": "TTAACGTAAAATATAGTGCATAGTATCATATTGATA [GTGCAC_site9527]", "gcPBM binding intensity (ln)": "9.85 ± 0.15"}, {"sequence": "CAATCAAAGAAACACACACACACCTAAACATAAAAG [CACACA_site2756]", "gcPBM binding intensity (ln)": "10.2 ± 0.24"}, {"sequence": "AAATGTGTTTATTTAACACACAAAAGAAAAAATATA [CACACA_site6993]", "gcPBM binding intensity (ln)": "10.2 ± 0.26"}, {"sequence": "AATGTAAAATATATGTGTACATATGTTTATATATAT [XGTACX_site2216]", "gcPBM binding intensity (ln)": "11.5 ± 1.1"}, {"sequence": "TATAACAAGTAATGTTGTACATTGTATTATGTAATA [XGTACX_site6372]", "gcPBM binding intensity (ln)": "10.9 ± 0.64"}, {"sequence": "GTGTGTTGTATATACTGTACATACTTTATATATAGT [XGTACX_site1876]", "gcPBM binding intensity (ln)": "11.3 ± 0.63"}, {"sequence": "TAAGTTCCCTTTGAATGTACATATAATGAAAAGAAA [XGTACX_site826]", "gcPBM binding intensity (ln)": "11.1 ± 0.58"}, {"sequence": "TTCCCTTTTGTAAAATGTACATATATATTTAAACAA [XGTACX_site3263]", "gcPBM binding intensity (ln)": "11.2 ± 0.54"}, {"sequence": "TTTTTATTAAAATGTATTTTAGGAAAAAACAAAAAA [XGTACX_negctrl_site437]", "gcPBM binding intensity (ln)": "10.1 ± 0.31"}, {"sequence": "AAAAAACTTTTAAGCACACACATAGATAATATAGAT [CACACA_site6835]", "gcPBM binding intensity (ln)": "10.085 ± 0.007"}, {"sequence": "TTTTTTTTTTTTGTCACACATATTTGTATTAATCAT [CACACA_site5235]", "gcPBM binding intensity (ln)": "10.1 ± 0.46"}, {"sequence": "CAACATTTGAAACACACACACATACAAACAAACAAA [CACACA_site3306]", "gcPBM binding intensity (ln)": "10.4 ± 0.29"}, {"sequence": "ATATAAATATAGCATACACACAAAAAAATAAAATAA [CACACA_site2333]", "gcPBM binding intensity (ln)": "9.895 ± 0.035"}, {"sequence": "AATATTAACAATCGCACACATATTATTTTTCCAAAA [CACACA_site4982]", "gcPBM binding intensity (ln)": "10.2 ± 0.25"}, {"sequence": "TGAAATGGAAACAACTGTACAAAATAAATATGATAT [XGTACX_site1311]", "gcPBM binding intensity (ln)": "10.8 ± 0.4"}, {"sequence": "ATACTTTTATTTTTGGTGCATATATCATGTAGACGT", "gcPBM binding intensity (ln)": "10.3 ± 0.16"}, {"sequence": "AATTTATTATTTGTATGTACTCATATGATTCACTTA [XGTACX_site2797]", "gcPBM binding intensity (ln)": "11.3 ± 0.86"}, {"sequence": "TATGGAAGAAAATATACACACAAAAAAAAAAAATGT [CACACA_site1486]", "gcPBM binding intensity (ln)": "10.1 ± 0.071"}, {"sequence": "TATTTTTATACAATTTAACACGGGTTATAAAATGTA [CACACA_negctrl_site566]", "gcPBM binding intensity (ln)": "9.99 ± 0.15"}, {"sequence": "TGTATATCATATATTTGTACTCAATTAATATAAACA [XGTACX_site3970]", "gcPBM binding intensity (ln)": "11.2 ± 0.98"}, {"sequence": "AAATGAAATAAATGTAGTACACATATACAATATATA [XGTACX_site6951]", "gcPBM binding intensity (ln)": "11.7 ± 1.1"}, {"sequence": "TATATATATTTATAATGTACATATTTTTTTTTATTT [XGTACX_site4761]", "gcPBM binding intensity (ln)": "11.3 ± 0.77"}, {"sequence": "TTGTATATATGACTTTTTTATATTTCAATTTTGTGC [CACACA_negctrl_site296]", "gcPBM binding intensity (ln)": "9.74 ± 0.19"}, {"sequence": "ACATCTAATTTGTATACACACAATAATAAATGGTGA [CACACA_site824]", "gcPBM binding intensity (ln)": "10.07 ± 0.099"}, {"sequence": "TTTACTTTCTTATTTTCACACATTTAAAAAAAAATT [CACACA_site5949]", "gcPBM binding intensity (ln)": "10.1 ± 0.18"}, {"sequence": "TATTAATTTTTAAACATAATTTTTCGTATAATATAT [CACACA_negctrl_site762]", "gcPBM binding intensity (ln)": "9.81 ± 0.11"}, {"sequence": "GAGATAAAATAAAACACACACATATATTTATATAAC [CACACA_site7098]", "gcPBM binding intensity (ln)": "9.795 ± 0.021"}, {"sequence": "GTATCGAAGTAAATACGTACTTAAATATGTTTAAAA [XGTACX_site1353]", "gcPBM binding intensity (ln)": "11.3 ± 0.77"}, {"sequence": "ACGTACTGCCCTAAAGTGCATATATAATATAAACGA [GTGCAC_site9911]", "gcPBM binding intensity (ln)": "10.5 ± 0.43"}, {"sequence": "TACACAAGAAAATTCACACACACACGGATATTTATA [CACACA_site7765]", "gcPBM binding intensity (ln)": "9.88 ± 0.057"}, {"sequence": "CTTTAAACCCTGAACACACACAAATACAGACAAAAA [CACACA_site247]", "gcPBM binding intensity (ln)": "10.4 ± 0.38"}, {"sequence": "GTATTTTAATATAAATGTACATAAATGTTATATATA [XGTACX_site3475]", "gcPBM binding intensity (ln)": "11.1 ± 0.73"}, {"sequence": "AATATTGTATATAATAAACACACAATATTAAAAATA [CACACA_site8262]", "gcPBM binding intensity (ln)": "10.11 ± 0.021"}, {"sequence": "ATAAGATATGTATATACACACATTTATTTACCTATA [CACACA_site7521]", "gcPBM binding intensity (ln)": "9.96 ± 0.14"}, {"sequence": "TTATTATTTTATAACACACACATATATATTATATCT [CACACA_site1434]", "gcPBM binding intensity (ln)": "9.895 ± 0.007"}, {"sequence": "CATATATAAATCATGTGTACGTATTGAGTATCTACT [XGTACX_site6278]", "gcPBM binding intensity (ln)": "11.5 ± 0.97"}, {"sequence": "AGGATATATAATTAAGTGCATTAATTCAAAATAAAA [GTGCAC_site9702]", "gcPBM binding intensity (ln)": "10.05 ± 0.085"}, {"sequence": "ATATGACTTAAATATGTGCGCATTTTTTTTTTTTTT", "gcPBM binding intensity (ln)": "10.5 ± 0.34"}, {"sequence": "TAAACAAAATATATATGTACATATATATATATATAT [XGTACX_site6502]", "gcPBM binding intensity (ln)": "11.2 ± 0.81"}, {"sequence": "ATCTAGCCATTTTTTAGTACACATAAATAAAAAAAA [XGTACX_site1257]", "gcPBM binding intensity (ln)": "11.5 ± 1.1"}, {"sequence": "CATTAATAACAAAGTTGTACAAGATAATATTATATG [XGTACX_site6832]", "gcPBM binding intensity (ln)": "11.3 ± 0.73"}, {"sequence": "AAAACATTTTCAAACTGTACACATAGAACTATGCAT [XGTACX_site4087]", "gcPBM binding intensity (ln)": "11.4 ± 0.82"}, {"sequence": "ACATAAGAAGTTATATGTACATATATTTTTTAAATT [XGTACX_site8078]", "gcPBM binding intensity (ln)": "11.2 ± 0.72"}]}]}
